PubChem BioAssay AID1963576 (National Center for Advancing Translational Sciences (NCATS), 2024)
Hit rate of the full screen: of about 46,000 compounds, about 60 (0.1%) were called active. Roughly 3% stayed inconclusive and do not appear here. Calls follow the shape of the dose curve; as a rule, active = well fitted inhibition curve with a large enough effect; inconclusive = small, poorly fitted or top-dose-only effect; inactive = no such curve, though single readings can be large or run the other way. Some of the results follow.

Test: Primary qHTS assay for Inhibitors of ovarian cancer metastasis using an organotypic tumor microenvironment (TME) model. Also: nearly all actives have a fitted effect of over 65% in size.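 As to activity change, negative = inhibition: plate controls were DMSO wells for no effect and tomatine positive control wells for full effect.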
Settings: SKOV3ip1-GFP adhesion/invasion on 3D omental model, fluorescence; series mostly up to 45.8 µM; activity change, negative = inhibition: at the top concentration
Procedure, shortened: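 Primary human omental fibroblast/mesothelial 3D culture pre-formed 48 h. SKOV3ip1-GFP cells added with compounds (0.36-46 umol/L), incubated 2 h RT/16 h 37 C, fixed; GFP cells quantified at 488/509 nm.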

Activity change, negative = inhibition, inactive:
COc1ccc(OC)c(CCNC(=O)CCCc2nnc3n(C)c(=O)c4sccc4n23)c1 9.39%
Cc1ccc(Cn2c(C)c(CNC3CCCCC3)c(C(=O)O)c2C)cc1 1.18%
CCC(=O)N1CCc2cc(S(=O)(=O)NC(C(=O)NCc3ccc(OC)cc3)C(C)C)ccc21 (configuration not stated) -18.6%
COc1ccc(C)cc1NC(=O)CN1CCN(CC(=O)Nc2ccccc2F)CC1 -24.1%
Cc1cc(C)c(NC(=O)c2sc3nc(C)cc(C)c3c2N)c(C)c1 -0.728%
COc1ccc2[nH]cc(CCNC(=O)Nc3ccccc3C)c2c1 8.3%
O=C(NCCc1ccc(F)cc1)C(=O)NCC(c1cccs1)S(=O)(=O)c1cccs1 (configuration not stated) -0.314%
CC(=O)N1CCCc2cc(S(=O)(=O)N3CCC(C(=O)NC4CCCCC4)CC3)ccc21 4.78%
CC(C)(C)OC(=O)N1CCC(c2c(C(=O)N3CCN(C4CCCCC4)CC3)cnn2-c2cccc(Cl)c2)CC1 -1.45%
COc1ccc(NC(=O)CSC2=Nc3ccccc3C3=NC(CCC(=O)NCCc4ccccc4)C(=O)N23)cc1 (configuration not stated) -14.6%
CCN1C(=O)C(O)(c2c(C)[nH]c3ccccc23)c2ccccc21 (configuration not stated) -12.5%
Cc1oc2ncn(C)c(=O)c2c1C(=O)N(C)c1ccccc1F 0.523%
Cc1ccc(C)c(S(=O)(=O)NCC(c2ccc(N(C)C)cc2)N2CCOCC2)c1 (configuration not stated) -11.4%
O=C(NCc1ccccc1Cl)C1CCCN(c2nc3ccccc3n3cccc23)C1 (configuration not stated) -5.61%
Cc1oc2ncn(CC(C)C)c(=O)c2c1C(=O)Nc1ccc(Cl)cn1 1.4%
Cc1ccc(C)c(NC(=O)C(C)N(c2ccccc2)S(C)(=O)=O)c1 (configuration not stated) 4.95%
Cc1cccc(-n2cc(-c3ccccc3)nc2SCC(=O)Nc2ccccc2Cl)c1 -1.58%
CCOC(=O)c1sc(NC(=O)c2nc(SC)ncc2Cl)c(C(=O)OCC)c1C -2.82%
COc1ccc(-n2c(-c3ccc(Cl)cc3)cc3c2CC(C)(C)CC3=O)c(OC)c1 -10.5%
CC1=C(C(=O)Nc2ccc(C)cc2C)C(c2ccc(C(C)C)cc2)n2nc(C(F)(F)F)nc2N1 (configuration not stated) -2.83%
CC(C)c1ccc(NS(=O)(=O)c2ccc3[nH]cc(C(=O)NC4CCCCC4)c(=O)c3c2)cc1 -20.2%
Cc1cccc(OCCn2nnc3sc4c(c3c2=O)CCCC4)c1 2.23%
COc1ccc(-c2nc3ccccc3s2)cc1NC(=O)c1ccccc1OC 4.22%
CNC(=O)c1c(NC(=O)c2cc(=O)c3ccccc3o2)sc2c1CCC2 15.7%
COc1ccc(CNC(=O)Cc2c(C)c3ccc(O)cc3oc2=O)cc1 1.57%
Cc1cccc(NC(=O)c2sc3cccc(Cl)c3c2Cl)c1 -0.239%
Cc1cccc(C)c1NC(=O)c1ccc2nc(CCc3ccccc3)oc2c1 2.28%
COCCCNC(=O)c1c(C)nn(-c2ccc(F)cc2)c1-n1cccc1 -10%
Cc1c(C(=O)Nc2ccc(F)cc2F)nnn1-c1ccccc1Br 10.3%
COc1ccc(CCNC(=O)c2ccc3c(c2)nc2n3CCOC2)cc1OC 10.7%
COc1cccc(-c2nc(S(=O)(=O)c3ccccc3)c(NCc3ccccc3)o2)c1 -3.82%
Cn1c(=O)c2sccc2n2c(CCCC(=O)Nc3ccc(F)c(F)c3)nnc12 0.0887%
COc1cccc(-c2cc(C(F)(F)F)nc(NCc3ccc(F)cc3)n2)c1 -23.4%
O=C(NCCCO)C(=O)Nc1c2c(nn1-c1ccc(F)cc1)CSC2 10.9%
Cc1nnc(N2CCC(C(=O)NCc3ccc(N(C)C)cc3)CC2)c2nn(-c3ccccc3)c(C)c12 0.731%
Cc1ccc(C(=O)COC(=O)C(Cc2c[nH]c3ccccc23)NC(=O)c2ccc(Br)cc2)cc1 (configuration not stated) 6.89%
CCOc1ccccc1CNC(=O)CC(C)n1ccc(C)n1 (configuration not stated) -0.799%
CN(CC(=O)Nc1cccc(C#N)c1)S(=O)(=O)c1cc2c(cc1Cl)NC(=O)CO2 -4.1%
COc1ccc(OC)c(CNC(=O)Cn2nc(C)c3c(C)n(-c4ccccc4)nc3c2=O)c1 12.8%
Cc1cc2oc(C(=O)Nc3cccc(-c4nc5ccccc5o4)c3)c(C)c2cc1Cl -2.13%
O=C(CSc1nc2ccccc2n1Cc1cccc(Cl)c1)N1CCN(c2ccc(F)cc2)CC1 -17.4%
COc1ccccc1CNC(=O)c1ccc(CN2CC(=O)N3CCCCC3C2=O)cc1 (configuration not stated) 5.68%
Cc1ccc(C)c(NC(=O)N2CCC(N3CCN(Cc4ccc(F)cc4)C(=O)C3=O)CC2)c1 4.28%
COc1ccccc1C(=O)NCC1(N2CCN(C)CC2)CCCCC1 0.229%
COCCCNC(=O)C1CCCN(S(=O)(=O)c2ccc3c(c2)oc(=O)n3C)C1 (configuration not stated) 5.85%
CCOC(=O)c1cccc(NC(=O)CCn2nc(C)c3c(C)n(-c4ccccc4)nc3c2=O)c1 0.713%
CC1=Nc2cc(C(=O)NC3CCCC3)ccc2Sc2ccc(Br)cc21 25%

outcome, inactive:
COc1cc(CN2CCc3nc(Nc4ccc5c(c4)OCCO5)ncc3C2)cc(OC)c1OC
Cc1ccc2sc(N3CCN(C(=O)C4COc5ccccc5O4)CC3)nc2c1C (configuration not stated)
Cc1ccc(Cl)cc1NC(=O)c1oc2ccc(S(=O)(=O)N3CCC4(CC3)OCCO4)cc2c1C
CC1CCN(S(=O)(=O)c2ccc3nc(-c4cccnc4)cc(C(=O)NCCCOC(C)C)c3c2)CC1
COc1ccc(-c2cc(-c3ccccc3)nc3c2COc2ccc(Cl)cc2-3)cc1
COc1ccc(NC(=O)Nc2cn(CC(C)C)c(=O)c3ccccc23)c(OC)c1
CCOC(=O)N1CCC(NC(=O)c2cnn(-c3cccc(C)c3)c2-n2cccc2)CC1
COC(=O)c1ccc(NS(=O)(=O)c2ccc3[nH]c4c(c3c2)CCCCC4)cc1
CCOc1ccc(CNCCNC(=O)c2nonc2N)cc1
CC1=C(C(=O)Nc2ccccc2)C(c2ccncc2)n2nc(SCc3ccccc3)nc2N1 (configuration not stated)
CC(C)c1ccc(NC(=O)CCS(=O)(=O)c2ccc(Br)s2)cc1
COc1ccc(NC(=O)C2=C(C)Nc3nc(SC)nn3C2c2cc(OC)ccc2OC)cc1 (configuration not stated)
CCc1nn(CC(=O)NCc2cccc(OC)c2OC)c(=O)c2cc3occc3n12
O=C(Nc1ccc(Cl)cc1)c1ccc2c(c1)N(Cc1ccccc1)C(=O)c1ccccc1S2(=O)=O
CCN(CC)c1ccc(NC(=O)CN2CCN(CC(=O)Nc3ccccc3OC)CC2)cc1
